According to paper PMC12820563:
The list shows a part of the results. The list includes weakly bound sequences.

These sequences were tested against T1, MBP-FoxP3dN (UniProt Q99JB6) (assay: PD-seq (MBP pull-down with sequencing)). Details: 20 mM Tris-HCl pH 7.5, 100 mM NaCl, 1.5 mM MgCl2, 0.4 uM protein, 0.1 uM dsDNA library, 30 min, room temperature, amylose pull-down; high values mean tight binding; double strand, one strand shown.
T1 sequence: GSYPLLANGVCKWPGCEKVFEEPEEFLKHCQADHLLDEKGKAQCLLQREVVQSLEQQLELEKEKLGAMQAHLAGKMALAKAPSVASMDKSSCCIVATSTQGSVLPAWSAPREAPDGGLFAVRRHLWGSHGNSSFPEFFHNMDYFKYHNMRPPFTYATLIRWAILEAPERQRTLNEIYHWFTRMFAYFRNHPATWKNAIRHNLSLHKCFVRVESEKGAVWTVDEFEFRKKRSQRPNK

Row | Sequence | binding signal (RPM ratio (pull-down/input))
1 | GATGATTGTTCTCCCAGCTGATGAATTAATCGGCTCGAGTAAACAAATTTTCCTAATCTTTCTGTTCAAGCGCCATCTAC | 0.258
2 | GATGATTGTTCTCCCAGCTGATGAATTCCACCCCTCGAGTAAACAAATTTTCCTAATCTTTCTGTTCAAGCGCCATCTAC | 0.285
3 | GATGATTGTTCTCCCAGCTGATGAATTGAAGTCCTCGAGTAAACAAATTTTCCTAATCTTTCTGTTCAAGCGCCATCTAC | 0.299
4 | GATGATTGTTCTCCCAGCTGATGAATTGTAAGGTTCGAGTAAACAAATTTTCCTAATCTTTCTGTTCAAGCGCCATCTAC | 0.403
5 | GATGATTGTTCTCCCAGCTGATGAATTCCGTAATTCGAGTAAACAAATTTTCCTAATCTTTCTGTTCAAGCGCCATCTAC | 1.22
6 | GATGATTGTTCTCCCAGCTGATGAATTACATACCTCGAGTAAACAAATTTTCCTAATCTTTCTGTTCAAGCGCCATCTAC | 0.535
7 | GATGATTGTTCTCCCAGCTGATGAATTCGCTCTTTCGAGTAAACAAATTTTCCTAATCTTTCTGTTCAAGCGCCATCTAC | 0.33
8 | GATGATTGTTCTCCCAGCTGATGAATTTTTTCAGTCGAGTAAACAAATTTTCCTAATCTTTCTGTTCAAGCGCCATCTAC | 0.186
9 | GATGATTGTTCTCCCAGCTGATGAATTGCAACTCTCGAGTAAACAAATTTTCCTAATCTTTCTGTTCAAGCGCCATCTAC | 2.79
10 | GATGATTGTTCTCCCAGCTGATGAATTTAGCGAATCGAGTAAACAAATTTTCCTAATCTTTCTGTTCAAGCGCCATCTAC | 0.305
11 | GATGATTGTTCTCCCAGCTGATGAATTTGAATATTCGAGTAAACAAATTTTCCTAATCTTTCTGTTCAAGCGCCATCTAC | 0.866
12 | GATGATTGTTCTCCCAGCTGATGAATTCGTTATGTCGAGTAAACAAATTTTCCTAATCTTTCTGTTCAAGCGCCATCTAC | 3
13 | GATGATTGTTCTCCCAGCTGATGAATTGAGATACTCGAGTAAACAAATTTTCCTAATCTTTCTGTTCAAGCGCCATCTAC | 0.763
14 | GATGATTGTTCTCCCAGCTGATGAATTACTACCCTCGAGTAAACAAATTTTCCTAATCTTTCTGTTCAAGCGCCATCTAC | 0.341
15 | GATGATTGTTCTCCCAGCTGATGAATTCTAAAGTTCGAGTAAACAAATTTTCCTAATCTTTCTGTTCAAGCGCCATCTAC | 0.255
16 | GATGATTGTTCTCCCAGCTGATGAATTCCCCGTGTCGAGTAAACAAATTTTCCTAATCTTTCTGTTCAAGCGCCATCTAC | 0.28
17 | GATGATTGTTCTCCCAGCTGATGAATTTTATGCTTCGAGTAAACAAATTTTCCTAATCTTTCTGTTCAAGCGCCATCTAC | 0.836
18 | GATGATTGTTCTCCCAGCTGATGAATTGAGCGCATCGAGTAAACAAATTTTCCTAATCTTTCTGTTCAAGCGCCATCTAC | 1.34
19 | GATGATTGTTCTCCCAGCTGATGAATTTGTCGTCTCGAGTAAACAAATTTTCCTAATCTTTCTGTTCAAGCGCCATCTAC | 5.07
20 | GATGATTGTTCTCCCAGCTGATGAATTGAGGTCGTCGAGTAAACAAATTTTCCTAATCTTTCTGTTCAAGCGCCATCTAC | 0.464

Row | Sequence | binding signal (RPM ratio (pull-down/input))
21 | GATGATTGTTCTCCCAGCTGATGAATTTCTATAGTCGAGTAAACAAATTTTCCTAATCTTTCTGTTCAAGCGCCATCTAC | 0.277
22 | GATGATTGTTCTCCCAGCTGATGAATTCGGTCATTCGAGTAAACAAATTTTCCTAATCTTTCTGTTCAAGCGCCATCTAC | 0.728
23 | GATGATTGTTCTCCCAGCTGATGAATTCGACAATTCGAGTAAACAAATTTTCCTAATCTTTCTGTTCAAGCGCCATCTAC | 0.414
24 | GATGATTGTTCTCCCAGCTGATGAATTTAAGCTTTCGAGTAAACAAATTTTCCTAATCTTTCTGTTCAAGCGCCATCTAC | 0.885
25 | GATGATTGTTCTCCCAGCTGATGAATTCATGTGATCGAGTAAACAAATTTTCCTAATCTTTCTGTTCAAGCGCCATCTAC | 0.552
26 | GATGATTGTTCTCCCAGCTGATGAATTGTTGACCTCGAGTAAACAAATTTTCCTAATCTTTCTGTTCAAGCGCCATCTAC | 3.26
27 | GATGATTGTTCTCCCAGCTGATGAATTTCTTCGCTCGAGTAAACAAATTTTCCTAATCTTTCTGTTCAAGCGCCATCTAC | 0.197
28 | GATGATTGTTCTCCCAGCTGATGAATTACATCGCTCGAGTAAACAAATTTTCCTAATCTTTCTGTTCAAGCGCCATCTAC | 0.487
29 | GATGATTGTTCTCCCAGCTGATGAATTTAGCATCTCGAGTAAACAAATTTTCCTAATCTTTCTGTTCAAGCGCCATCTAC | 6.55
30 | GATGATTGTTCTCCCAGCTGATGAATTTAATAGGTCGAGTAAACAAATTTTCCTAATCTTTCTGTTCAAGCGCCATCTAC | 0.937
31 | GATGATTGTTCTCCCAGCTGATGAATTGCGACTCTCGAGTAAACAAATTTTCCTAATCTTTCTGTTCAAGCGCCATCTAC | 2.99
32 | GATGATTGTTCTCCCAGCTGATGAATTGCCGATATCGAGTAAACAAATTTTCCTAATCTTTCTGTTCAAGCGCCATCTAC | 0.657
33 | GATGATTGTTCTCCCAGCTGATGAATTATCATGTTCGAGTAAACAAATTTTCCTAATCTTTCTGTTCAAGCGCCATCTAC | 0.619
34 | GATGATTGTTCTCCCAGCTGATGAATTGTCGTATTCGAGTAAACAAATTTTCCTAATCTTTCTGTTCAAGCGCCATCTAC | 1.46
35 | GATGATTGTTCTCCCAGCTGATGAATTAGCAAATTCGAGTAAACAAATTTTCCTAATCTTTCTGTTCAAGCGCCATCTAC | 0.351
36 | GATGATTGTTCTCCCAGCTGATGAATTGCGTTAATCGAGTAAACAAATTTTCCTAATCTTTCTGTTCAAGCGCCATCTAC | 0.843
37 | GATGATTGTTCTCCCAGCTGATGAATTTAGCGTTTCGAGTAAACAAATTTTCCTAATCTTTCTGTTCAAGCGCCATCTAC | 3.74
38 | GATGATTGTTCTCCCAGCTGATGAATTACTCCTGTCGAGTAAACAAATTTTCCTAATCTTTCTGTTCAAGCGCCATCTAC | 0.253
39 | GATGATTGTTCTCCCAGCTGATGAATTCTTCAGATCGAGTAAACAAATTTTCCTAATCTTTCTGTTCAAGCGCCATCTAC | 0.168
40 | GATGATTGTTCTCCCAGCTGATGAATTGAAGTAATCGAGTAAACAAATTTTCCTAATCTTTCTGTTCAAGCGCCATCTAC | 0.526
